Counter-ions that a name gives are not always drawn.
What was measured:
CaV1.2 channel [1] = conditions: maximum vs. minimum IC50 of Crumb et al. 2016 and Li et al. 2018
CaV1.2 channel [2] = system: CaV1.2 channel; parameters: method as in PMID 27060526; conditions: manual whole cell patch clamp, 36 ± 1 °C, 4 mM Ba2+, cited from earlier work; for IC50: rabbit ventricular AP waveform at 10 s interval, current at repolarizing phase, read-out: IC50 (Crumb et al. 2016)

| SMILES | Ratio (max-to-min) of IC50s (CaV1.2 channel [1]) | IC50 (CaV1.2 channel [2]) [µM] | nH (Crumb et al. 2016) (CaV1.2 channel [2]) |
| --- | --- | --- | --- |
| CN(C)CCCN1c2ccccc2Sc2ccc(Cl)cc21 [Chlorpromazine] | 1.3 | 8.2 | 0.8 |
| Cc1nccn1CC1CCc2c(c3ccccc3n2C)C1=O (centres unmarked) [Ondansetron] | 412 | 22.6 | 0.8 |
| COc1ccc([C@@H]2Sc3ccccc3N(CCN(C)C)C(=O)[C@@H]2OC(C)=O)cc1 [Diltiazem, diltiazem hydrochloride] | – | 0.1 | 0.7 |
| CC(C)COCC(CN(Cc1ccccc1)c1ccccc1)N1CCCC1 (centres unmarked) [Bepridil] | 228 | 2.8 | 0.6 |
